Assay results as given in article PMC4336329 (PLoS ONE, 2015).
The campaign covered roughly 310,000 compounds. About 2,200 (0.71%) showed an effect of 50% or more. Effects have a minus sign here. The list shows a part of the results.

What follows are compounds tested against human ether-à-go-go-related gene (hERG) potassium channel (human, UniProt Q12809) (assay: primary screen, population patch clamp on CHO cells stably expressing hERG).
Sequence of human ether-à-go-go-related gene (hERG) potassium channel (Q12809 whole entry, looked up): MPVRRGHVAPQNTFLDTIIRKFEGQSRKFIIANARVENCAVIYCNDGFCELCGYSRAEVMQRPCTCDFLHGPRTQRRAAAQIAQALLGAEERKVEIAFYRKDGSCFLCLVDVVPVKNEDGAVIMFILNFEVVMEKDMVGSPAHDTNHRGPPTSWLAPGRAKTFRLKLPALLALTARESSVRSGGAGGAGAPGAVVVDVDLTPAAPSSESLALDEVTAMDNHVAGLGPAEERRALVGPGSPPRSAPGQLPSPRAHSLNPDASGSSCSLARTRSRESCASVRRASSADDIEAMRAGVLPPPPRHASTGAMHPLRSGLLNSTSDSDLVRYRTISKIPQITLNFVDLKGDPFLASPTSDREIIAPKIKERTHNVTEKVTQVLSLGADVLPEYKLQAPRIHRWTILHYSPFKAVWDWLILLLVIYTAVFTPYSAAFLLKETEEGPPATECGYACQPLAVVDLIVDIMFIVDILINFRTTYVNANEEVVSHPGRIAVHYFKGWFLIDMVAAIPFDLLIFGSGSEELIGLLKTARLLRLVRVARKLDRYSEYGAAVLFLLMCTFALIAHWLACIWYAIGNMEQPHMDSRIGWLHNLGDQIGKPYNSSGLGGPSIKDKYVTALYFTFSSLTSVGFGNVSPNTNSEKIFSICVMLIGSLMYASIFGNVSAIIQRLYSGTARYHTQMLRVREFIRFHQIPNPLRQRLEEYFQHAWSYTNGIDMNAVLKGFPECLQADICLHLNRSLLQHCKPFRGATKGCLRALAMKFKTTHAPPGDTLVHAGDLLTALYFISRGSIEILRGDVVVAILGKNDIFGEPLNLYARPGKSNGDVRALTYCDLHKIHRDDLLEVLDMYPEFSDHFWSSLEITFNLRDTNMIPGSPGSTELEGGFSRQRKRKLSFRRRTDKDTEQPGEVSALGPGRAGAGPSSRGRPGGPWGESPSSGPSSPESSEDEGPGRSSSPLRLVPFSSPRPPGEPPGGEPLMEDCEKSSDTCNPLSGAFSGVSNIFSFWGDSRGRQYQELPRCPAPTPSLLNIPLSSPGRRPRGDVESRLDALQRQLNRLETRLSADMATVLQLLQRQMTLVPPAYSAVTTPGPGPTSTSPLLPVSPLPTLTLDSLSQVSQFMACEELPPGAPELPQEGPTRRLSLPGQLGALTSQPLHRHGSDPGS

| SMILES | hERG current change (%, negative = inhibition) at 1uM [%] |
| --- | --- |
| CS(=O)(=O)N(CC(=O)N1CCc2ccccc2C1)c1cccc(F)c1 | -2.4 |
| COc1ccc(C)cc1NC(=S)NC12CN3CN(CN(C3)C1)C2 | 16 |
| N=C1/C(=C/c2cccn2Cc2ccc(Cl)cc2)C(=O)N=C2SC=CN12 | 6.96 |
| O=c1nc(NCc2ccccc2Cl)cn[nH]1 | 1.65 |
| O=C(Cn1ncc2c([nH]c3ccccc32)c1=O)NCC1CCN(Cc2ccccc2F)CC1 | -18.2 |
| COc1ccc(/C=N/N=C2/NC(=O)C(CC(=O)O)S2)cc1OCc1ccccc1Cl (centres unmarked) | 6.29 |
| C/C(=N\OC(=O)c1ccc(Br)cc1)c1ccccn1 | 4.65 |
| CCOC(=O)N1CCC(NC(=O)CCc2c(C)nc3ncnn3c2C)CC1 | 6.8 |
| Cc1nn(CC(=O)N2CCC(C(N)=O)CC2)c(=O)c2nn(-c3ccccc3)c(C)c12 | 17 |
| Cc1ccc(C(=O)N2CC(=O)Nc3ccc(F)cc3C2c2ccc(F)cc2)cc1[N+](=O)[O-] (centres unmarked) | 6.15 |
| CC(C)(C)OC(=O)[C@H](Cc1ccccc1)NC(=O)c1[nH]cnc1C(=O)N[C@@H](Cc1ccccc1)C(=O)OCc1ccccc1 | 1.61 |
| COc1ccc(NC(=O)CN(c2c(C)cccc2C)S(C)(=O)=O)cc1 | -10.9 |
| O=C(O)C1CSC(c2ccccc2Cl)N1C(=O)c1ccc(Cl)cc1 (centres unmarked) | 14.9 |
| O=C(Nc1ccccc1)c1ccc(Br)o1 | 11.4 |
| CS(=O)(=O)N1CCN(C(=O)c2ccc3c(c2)OCCO3)CC1 | 19.2 |
| O=C(CN(c1ccc2c(c1)OCCO2)S(=O)(=O)c1ccccc1)NCc1ccco1 | 11.5 |
| O=C(c1cc2ccccc2oc1=O)N(Cc1ccccc1)CC1CCCO1 (centres unmarked) | 6.58 |
| COc1ccc(NC(C)=O)cc1S(=O)(=O)NC(C)c1ccc(-n2ccnc2)cc1 (centres unmarked) | 1.36 |
| COc1ccc(NC(=O)CC2S/C(=N\c3nccs3)N(C)C2=O)cc1 (centres unmarked) | 14.9 |
| COc1ccc(CSc2nnc(SCc3ccc([N+](=O)[O-])cc3)s2)cc1 | 10.1 |
| Cc1ccc(OC(=O)C(C)c2cccc(C(=O)c3ccccc3)c2)cc1 (centres unmarked) | 14.5 |
| COc1cc(NC(=O)Cn2cnc(S(=O)(=O)N3CCC(C)CC3)c2)cc(OC)c1OC | 15 |
| Cc1nn(-c2ccccc2)c(Cl)c1C1C(C#N)=C(N)OC2=C1C(=O)CC(C)(C)C2 (centres unmarked) | 5.11 |
